Our source for the binding values is publication PMC6538657.

Protein sequences, listed by entry. Tags and fused reporters are not part of them. Lines headed by an entry give the natural chain unless they say otherwise; changes in a name come on top.
UniProt Q15672: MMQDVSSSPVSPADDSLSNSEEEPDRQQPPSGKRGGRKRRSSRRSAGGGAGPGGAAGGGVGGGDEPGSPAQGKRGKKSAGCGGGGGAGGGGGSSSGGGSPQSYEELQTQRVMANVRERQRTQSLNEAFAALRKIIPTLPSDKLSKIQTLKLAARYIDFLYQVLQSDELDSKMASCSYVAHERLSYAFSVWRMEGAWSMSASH
UniProt P78543: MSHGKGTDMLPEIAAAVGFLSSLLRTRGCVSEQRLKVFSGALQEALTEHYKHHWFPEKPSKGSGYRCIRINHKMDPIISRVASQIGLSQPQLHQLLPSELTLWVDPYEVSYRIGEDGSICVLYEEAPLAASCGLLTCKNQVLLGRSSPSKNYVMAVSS

No constants are given. Whether binding was seen depends on the method and setting. For some assays here: Binding seen in cells or lysates may run through a third protein. Some binding calls cover weakened binding; strength is not graded here.

Assay [1] deals with Twist1 (on the 19K-protein chip) (UniProt Q15672). Kind of assay: peptide or protein array; 19K-protein chip analysis with BTG2^/TIS21 protein.
Assay [2] deals with BTG2-HA (in HeLa cells) (human) (UniProt P78543). Kind of assay: co-IP; competition assay in HeLa cells: BTG2-HA and v5-Twist1 with increasing Flag-cNOT7.
In assay [3] the target is BTG2-HA (human) (UniProt P78543). Kind of assay: co-IP; 293TN cells co-transfected; whole-cell lysate (1.0 mg) in E1A buffer (50 mM HEPES pH 7.5, 150 mM NaCl, 0.1% NP-40, 5 mM EDTA), IP with anti-HA antibody overnight at 4 °C, protein G beads; immunoblot. In general terms: A western blot detects proteins with antibodies after separation by electrophoresis.
For assay [4] the target is unchanged. Kind of assay: co-IP; 293TN cells co-transfected; 1 mg of cytoplasmic / nuclear fractions pulled down with 1 μg of anti-HA antibody overnight at 4 °C.
Assay [5] deals with GST-BTG2 (human) (UniProt P78543). Kind of assay: pull-down; GST and GST-BTG2 beads incubated with lysates of transfected 293TN cells at 4 °C overnight; immunoblot with anti-v5 or anti-Flag antibody; only the target purified.
In assay [6] the target is endogenous BTG2 protein (MCF-7) (human (endogenous in MCF-7)) (UniProt P78543). Kind of assay: co-IP; MCF-7 cells transfected with v5-Twist1; IP with anti-BTG2 antibody.
Assay [7] has as its target Flag-Twist1 (UniProt Q15672). Kind of assay: co-IP; 293TN cells transfected with Flag-Twist1 (1.0 μg) and v5-BTG2 (1.0 μg); IP with 1.0 µg of anti-Flag antibody.
In assay [8] the target is v5-Twist1 (UniProt Q15672). Kind of assay: co-IP; 293TN cells co-transfected; lysate in E1A buffer, IP with anti-v5 antibody overnight at 4 °C, protein G beads; immunoblot; with or without MG132 treatment (Fig. 4c).

Regarding “BTG2^/TIS21 protein (probe of the 19K-protein chip) (from UniProt P78543 1-158)”, the binding entry in assay [1] is reported as “binds”. On to “v5-Twist1 (in HeLa cells) (from UniProt Q15672 1-202)”, for which the binding entry in assay [2] is reported as “binds”. With v5-Twist1 (from UniProt Q15672 1-202), the binding entry in assay [3], in assay [4] and in assay [5] was “binds” throughout. Take “3xFlag-tagged Twist1 deletion mutant 1-161 (from UniProt Q15672 1-161) (domain or fragment)”: the binding entry in assay [3] and in assay [5] was “no binding” throughout. “3xFlag-tagged Twist1 wild type (1-202) (from UniProt Q15672 1-202)”: the binding result in assay [3] and in assay [5] was “binds” throughout.

With “v5-Twist1 (in MCF-7 cells) (from UniProt Q15672 1-202)”, the binding entry in assay [6] was “binds”. With v5-BTG2 (from UniProt P78543 1-158), in assay [7], the binding entry is on record as “binds”. Take BTG2-HA (from UniProt P78543 1-158): in assay [8], the binding entry was “binds”. On to “3xFlag-tagged Twist1 deletion mutant 1-121 (from UniProt Q15672 1-121) (domain or fragment)”, for which the binding result in assay [3] and in assay [5] was “no binding” in each case.
